Source: PubChem BioAssay AID445 (National Center for Advancing Translational Sciences (NCATS), 2006)
The campaign covered roughly 110,000 compounds. About 40 (0.04%) were called active. Inconclusive results, whose numbers are uncertain, are shown with a selection of clear calls. Calls come from the whole dose curve; as a rule, active = well fitted curve in the direction sought with a large enough effect in the signal ratio (not every such curve was filed as active); inconclusive = small, poorly fitted or top-dose-only effect, or a change in a side signal; inactive = flat fitted curve, though single readings scatter; the % refers to the signal ratio. Potencies of inconclusive entries are doubtful fits and often do not repeat.

assay: IkB Signaling; conditions: ABC-DLBCL IkBa-CBG/CBR dual luciferase ratio (green luciferase fused to IkBa over red control in OCI-Ly3 lymphoma cells), 4 h; IkBa stabilization activation: at 57.1 µM (top of the series), scaled: untreated 0%, proteasome inhibitor 100% unless noted;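 for IkBa stabilization activation: 0% = basal untreated cells and 100% = reference inhibitor full response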
How it was run: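 Luminescence ratio of IκBα-fused green versus native red beetle luciferase in OCI-Ly3 cells, 4 h post-doxycycline with compound; red signal alone, scaled from basal (0%) to zero light (-100%), flagged nonspecific or cytotoxic effects.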
Potency is the fitted concentration of half-maximal effect.

| SMILES | IkBa stabilization activation | Potency |
| --- | --- | --- |
| O=c1c(=O)n(-c2cccc(Cl)c2)ccn1Cc1cccc(F)c1 | inactive |  |
| CN1CCN(C(=S)c2ccc(N(C)C)cc2)CC1 | inactive |  |
| COc1cccc(-c2nc(CSCC(=O)NCCc3ccc(Cl)cc3)c(C)o2)c1 | inconclusive: 0.972% [signal inhibitor] |  |
| O=C(Nc1ccc2c(c1)OCO2)C1Cc2ccccc2CN1S(=O)(=O)c1cccs1 (centres undefined) | inconclusive: 2.97% [signal inhibitor] |  |
| C=CCSc1nnc(-c2cc(Br)ccc2N)c(=O)[nH]1 | inconclusive: 13.9% [signal inhibitor] |  |
| CCOC(=O)c1cc(-c2ccccc2)n(CC(=O)N(C)c2ccc(OC)cc2)c1C | inconclusive: -3.26% [signal inhibitor] |  |
| Clc1cc2c(c(CSC3=NCN(CC4CC4)CN3)c1)OCOC2 | inactive: 1.49% [at 11.4 µM, scaled: untreated 0%, proteasome inhibitor 100%] |  |
| CC(C)(C)c1cc(Br)ccc1OCC(=O)Nc1ncn[nH]1 | inactive |  |
| CCN(CCCNC(=O)c1cc2cc3ccc(C)cc3nc2s1)c1ccccc1 | inconclusive: 8.24% [signal inhibitor] |  |
| Cc1occc1C(=O)Nc1sc2c(c1C(N)=O)CCCCC2 | inactive |  |
| CCCN(c1ccccc1CC)S(=O)(=O)c1ccc2c(c1)CC(C)N2C(=O)C1CC1 (centres undefined) | inactive |  |
| CCOC(=O)c1c(NC(=O)CSc2nnc(-c3cccnc3)n2Cc2ccco2)sc(C)c1C | inconclusive: 2.29% [signal inhibitor] |  |
| CCOC(=O)CCNC(=O)Nc1ccc2nc(C)n(Cc3ccccc3Cl)c(=O)c2c1 | inconclusive: 2.89% [signal inhibitor] |  |
| Cc1ccc(NC(=O)c2oc3ccc(S(=O)(=O)N(C)C4CCCCC4)cc3c2C)cc1Cl | inconclusive: 0.129% [signal inhibitor] |  |
| O=C(COC(=O)c1ccccc1F)c1ccc(-n2nncc2-c2ccco2)cc1 | inactive |  |
| COc1ccc(S(=O)(=O)N(CCc2ccccc2)CC(=O)Nc2cccc(OC)c2)cc1 | inconclusive: 13.7% [signal inhibitor] |  |
| CCOc1ccc2nc(N3CCC(C(=O)N4CCN(C(=O)c5ccco5)CC4)CC3)sc2c1 | inconclusive: 12.1% [signal inhibitor] |  |
| CCOC(=O)c1cccc(NC(=O)C2CCN(S(=O)(=O)c3ccc4c(c3)oc(=O)n4C)CC2)c1 | inconclusive: 1.73% [signal inhibitor] |  |
| CC(=O)OCC(=O)[C@@]1(O)[C@H](C)C[C@@H]2[C@H]3CCC4=CC(=O)C=C[C@]4(C)[C@]3(F)[C@@H](O)C[C@@]21C | inconclusive: 13.1% [signal activator] [at 25.6 µM, scaled: untreated 0%, proteasome inhibitor 100%] |  |
| COc1ccccc1N1CCN(c2ncnc3c2cnn3C)CC1 | inconclusive: -0.862% [signal inhibitor] |  |
| CCOc1ccc(C2c3cc(OCC)c(OCC)cc3CC(=O)N2c2ccc(C(=O)O)cc2)cc1OCC (centres undefined) | inconclusive: 2.97% [signal inhibitor] |  |
| COc1ccc(N=[N+]([O-])c2ccc(OC)cc2)cc1 |  | inconclusive: 10 µM [signal inhibitor, partial curve] |
| CCc1ccc(C(=O)COC(=O)C(Cc2c[nH]c3ccccc23)NC(=O)c2ccc(Br)cc2)cc1 (centres undefined) | inconclusive: -2.45% [signal inhibitor] |  |

| SMILES | IkBa stabilization activation | Potency |
| --- | --- | --- |
| COc1ccc(CCN2C(=O)c3oc4ccc(F)cc4c(=O)c3C2c2ccc(C(C)(C)C)cc2)cc1 (centres undefined) | inconclusive: 4.5% [signal inhibitor] |  |
| CCCn1nnc(NC(=O)c2cc3ccccc3o2)n1 | inconclusive: 16.9% [signal inhibitor] |  |
| Cc1ccc(C(=O)Nc2ccc(O)c(C(=O)O)c2)o1 | inconclusive: 11.2% [signal inhibitor] |  |
| CCOC(=O)CSc1nnc2n1C(C)(C)Cc1ccccc1-2 | inactive |  |
| CCOC(=O)C(C)Oc1cccc2c(=O)n(CC(=O)N3CCN(C(=O)OCC)CC3)ccc12 (centres undefined) | inactive |  |
| COc1ccc(-c2nc3sc(CCNC(=O)c4cc(Cl)ccc4OC)c(C)n3n2)cc1 | inconclusive: 2.87% [signal inhibitor] |  |
| O=C(Cc1ccccc1)Nc1ccccc1N1CCN(c2ccccc2)CC1 | inconclusive: 4% [signal inhibitor] |  |
| CN(Cc1ccccc1)S(=O)(=O)c1ccc(F)c(C(=O)Nc2cccc(Cl)c2Cl)c1 | inconclusive: 0.9% [signal inhibitor] |  |
| Cc1ccc(C(C)(C)C)c(OCC(=O)NCCc2nc3ccccc3[nH]2)c1 | inconclusive: 15.8% [signal inhibitor] |  |
| O=C(CN1CCN(CC(=O)Nc2ccccc2Cl)CC1)Nc1ccc2c(c1)OCCO2 | inactive |  |
| O=C(NCc1cccs1)c1nc2c(nnn2Cc2ccccc2Cl)c(=O)[nH]1 | inconclusive: 7.7% [signal inhibitor] |  |
| CCOc1ccccc1-n1nnc(-c2nc(-c3ccccc3)no2)c1N | inconclusive: 10.8% [signal inhibitor] |  |
| Cc1cccc(CC2C(=O)Nc3ccccc32)c1 (centres undefined) | inactive |  |
| Cc1c(/C=C(\C#N)C(=O)Nc2cccc(Cl)c2)c2ccccc2n1Cc1ccccc1Cl |  | inconclusive: 1 µM [signal inhibitor] |
| Cc1c(Cl)cccc1NC(=O)CN1C(=O)COc2ccc(S(=O)(=O)Nc3ccccc3)cc21 | inconclusive: -1.45% [signal inhibitor] |  |
| COc1cccc(-n2c(SCC(=O)NC3CCCCC3)nc3n[nH]c(C)c3c2=N)c1 | inconclusive: 1.1% [signal inhibitor] |  |
| COC(=O)Nc1sc2c(c1C(N)=O)CCCCCC2 | inactive |  |
| CCOC(=O)c1cccc(NC(=O)C(C)n2c(C)c3cnn(-c4ccccc4)c(=O)c3c2C)c1 (centres undefined) | inactive |  |
| CCOC(=O)N1CCC(Nc2cccc(SC)c2)CC1 | inconclusive: -1.82% [signal inhibitor] |  |
| CC(C)NS(=O)(=O)c1ccc2nc(NC(=O)c3cncc(Br)c3)sc2c1 | inconclusive: 0.17% [signal inhibitor] |  |
| COc1cc(NC(=O)CSc2nc3nc(C)c(Cc4ccc(C)cc4)c(C)n3n2)cc(OC)c1 | inconclusive: 0.341% [signal inhibitor] |  |
| CCCSCCCNC(=O)c1ccc(Cn2c(=O)c3cccn3c3cccnc32)cc1 | inactive |  |
| CCOC(=O)N1CCc2c(sc3c2c(=O)n(CCc2ccccc2)c(=O)n3Cc2ccc(F)cc2)C1 | inconclusive: 0.31% [signal inhibitor] |  |

| SMILES | IkBa stabilization activation | Potency |
| --- | --- | --- |
| O=C(CSc1nc(-c2ccccc2)no1)N1CCCCC1 | inconclusive: 2.45% [signal inhibitor] |  |
| Cc1ccccc1-c1nn2c(=O)cc(CN3CCN(C(=O)c4ccc(C(C)(C)C)cc4)CC3)nc2s1 | inconclusive: 6.24% [signal inhibitor] |  |
| CCCCCCOC(=O)C(C#N)c1nc2ccccc2nc1N1CCN(C)CC1 (centres undefined) | inconclusive: -4.57% [signal inhibitor] |  |
| COc1ccc(S(=O)(=O)N2CCC(n3c(C(F)(F)F)nc4cccnc43)CC2)cc1OC | inactive |  |
| CCOc1ccccc1-n1cc2c(c1-c1ccc(OC)cc1)c(=O)n(C)c(=O)n2C | inconclusive: 2.11% [signal inhibitor] |  |
| Cc1ccc(N(C)C(=O)C2CCN(S(=O)(=O)c3ccc4c(c3)CCCN4C(=O)C3CCC3)CC2)cc1 | inactive |  |
| COC(=O)c1ccc(NC(=O)CN2CCN(c3ccc(Cl)cc3)CC2)cc1 | inconclusive: 1.34% [signal inhibitor] |  |
| CCOC(=O)NC(=O)CSc1nc(C)cc(C)c1C#N | inactive |  |
| Cc1cc(C)cc(NC(=O)CCc2c(C)nn(-c3ccc(N4CCCC4)nn3)c2C)c1 | inconclusive: 0.556% [signal inhibitor] |  |
| COc1cc2c(cc1OC)C(COc1ccc(F)cc1)N(C(=O)Cc1ccc(F)cc1)CC2 (centres undefined) | inconclusive: 2.15% [signal inhibitor] |  |
| COc1ccccc1C(=O)NCCc1nc2ccccc2n1C |  | inconclusive: 25.1 µM [signal inhibitor, partial curve] |
| Cc1ccc(Nc2c(-c3ccncc3)nc3ccc(C)cn23)cc1 | inconclusive: 1.1% [signal inhibitor] |  |
| CCN(CC)S(=O)(=O)c1cc(C(=O)NC2CCCCC2)ccc1C | inactive |  |
| Cc1cc(NC(=O)C2CCCCC2)nc2c1c(=O)oc1ccccc12 | inconclusive: -0.919% [signal inhibitor] |  |
| Cc1ccc(CN(C(=O)COc2cccc([N+](=O)[O-])c2)c2ccccn2)cc1 | inconclusive: 1.61% [signal inhibitor] |  |
| O=C(Nc1ccc2c(c1)OCO2)c1noc2c1CCCCC2 |  | inconclusive: 7.94 µM [signal inhibitor, partial curve] |
| CC(C)NC(=O)c1ccc(-n2c(-c3ccccc3)cc3c2CCCCC3)cc1 | inconclusive: 1.74% [signal inhibitor] |  |
| COC(=O)Cn1cc(C(=O)OC)c2ccccc21 | inactive |  |
| Cc1ccccc1C(=O)Nc1cccc(C(=O)OCc2cc(=O)n3c4c(sc3n2)CCCC4)c1 | inconclusive: 9.54% [signal inhibitor] |  |
| Cc1ccc(NC(=O)N(Cc2cn(C)c3ccccc23)C2CCCCC2)cc1C | inconclusive: 2.87% [signal inhibitor] |  |
| CCC1CCCCN1CC(=O)N1CCCc2c1c(=O)oc1ccc(OCc3ccccc3)cc21 (centres undefined) | inconclusive: 12.3% [signal inhibitor] |  |
| CCN1CCN(c2ccc(NS(=O)(=O)c3c(C)nc4sccn4c3=O)cc2Cl)CC1 | inconclusive: 3.02% [signal inhibitor] |  |
| CCCC(=O)Nc1ncnc2c1ncn2[C@@H]1O[C@@H]2COP(=O)(O)O[C@H]2[C@H]1OC(=O)CCC | inactive |  |
